81 compounds from the supplement of paper PMC8183993 can be followed below.

Structures are written as SMILES. Structures can show the parent of a compound that is named as a salt. ± gives the standard deviation of the averaged measurements. Whole data set: some 3,200 compounds, median “nuclei count (viability) relative to DMSO” near 99, cut for the lowest 2% near 16. Some of the results follow.

The subject of the assay is U2OS. In words: nuclei count (viability) relative to DMSO (% of DMSO); higher = more viable cells. The conditions noted are these: 10 µM; 24 h. The method, then: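 Primary image-based screen in U2OS cells: compounds at 10 uM for 24 h, then a 1 h o-propargyl-puromycin (OPP) pulse, click labelling, and high-throughput microscopy. Mean cytoplasmic OPP intensity and nuclei count were normalised to DMSO wells within each plate (DMSO = 100) and averaged over triplicate plates.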
Turning to `COc1nc(C)nc(Cl)c1NC1=NCCN1` [Moxonidine], the nuclei count worked out at 102.

For `COc1nc(C)nc(Cl)c1NC1=NCCN1` [Moxonidine hydrochloride], the nuclei count is 102.

In turn, `Cc1ccc(NC(=O)c2ccc(CN3CCN(C)CC3)cc2)cc1Nc1nc(-c2cccnc2)cs1` [Masitinib (AB1010)] gave a nuclei count of 90.7.

As for `CNCCN1CCC(OCc2ccccc2)CC1`, the nuclei count was determined as 100.

Take `CCCC[C@@H](C=O)NC(=O)[C@H](CC(C)C)NC(=O)OCc1ccccc1` [Calpeptin]: the nuclei count is 102 ± 1.9.

Compound `NCCS(=O)(=O)O` [Taurine] showed a nuclei count of 106.

The compound `COc1cc2nc(N3CCN(C(=O)c4ccco4)CC3)nc(N)c2cc1OC` [Prazosin hydrochloride] returned a nuclei count of 95.8 ± 3.5.

`CCn1cc(C(=O)O)c(=O)c2cnc(N3CCNCC3)nc21` [Pipemidic acid]: the nuclei count stood at 104.

Turning to `N#CC(C#N)=C(N)/C(C#N)=C/c1ccc(O)cc1`, the nuclei count stood at 102.

Compound `O=c1c(O)c(-c2cc(O)c(O)c(O)c2)oc2cc(O)cc(O)c12` [Myricetin (Cannabiscetin)] gave a nuclei count of 94.5.

For `CCN(CC)CCOc1ccc(Cc2ccccc2)cc1` [DPPE fumarate], the nuclei count stood at 101.

Compound `Cc1cc(Cn2cnc3c2CC(C(=O)O)N(C(=O)C(c2ccccc2)c2ccccc2)C3)ccc1N(C)C` (stereo unspecified) came in with a nuclei count of 101.

`Cc1ccc(S(=O)(=O)NC(=O)NN2CC3CCCC3C2)cc1` (stereo unspecified) [Gliclazide]: the nuclei count stood at 106.

In turn, `O=c1c(O)cccc2cc(O)c(O)c(O)c12` [Purpurogallin] yielded a nuclei count of 90.8.

Turning to `c1ccc(C(NCCNC(c2ccccc2)c2ccccc2)c2ccccc2)cc1` [AMN 082 dihydrochloride], the nuclei count stood at 104.

In turn, `CC(=O)N[C@@H](CC(=O)N[C@@H](CCC(=O)O)C(=O)O)C(=O)O` [Spaglumic acid] registered a nuclei count of 106 ± 16.

With `Cc1cccc(/C=C/c2ccccc2)n1`, the nuclei count was found to be 105.

In the case of `COc1ccc2cc(CCC(C)=O)ccc2c1` [Nabumetone], the nuclei count was found to be 102.

For `COc1ccc(-c2oc3c(CC=C(C)C)c(O[C@@H]4O[C@H](CO)[C@@H](O)[C@H](O)[C@H]4O)cc(O)c3c(=O)c2O[C@@H]2O[C@@H](C)[C@H](O)[C@@H](O)[C@H]2O)cc1` [Icariin], the nuclei count is 107.

Compound `Cc1cc(C)cc(C(=O)N(C)[C@H](Cc2ccc(-c3ccccc3)cc2)C(=O)N[C@@H](Cc2c[nH]c3ccccc23)C(=O)O)c1` registered a nuclei count of 86.9.

For `C[C@H]1[C@@H](O)O[C@@H]2O[C@@]3(C)CC[C@H]4[C@H](C)CC[C@@H]1[C@@]24OO3` [Dihydroartemisinin (DHA)], the nuclei count turned out to be 69.8.

In turn, `CCn1cc(C(=O)O)c(=O)c2ccc(C)nc21` [Nalidixic acid sodium salt] displayed a nuclei count of 95.7.

As for `CCn1cc(C(=O)O)c(=O)c2ccc(C)nc21` [Nalidixic acid (NegGram)], the nuclei count was 87.3.

For `C#CCN(C)Cc1ccccc1` [Pargyline hydrochloride], the nuclei count stood at 95.

Take `Cc1nc2c(c(=O)[nH]1)CSCC2`: the nuclei count was determined as 110.

As to `CCCCCCCC/C=C\CCCCCCCC(=O)N[C@@H](CO)Cc1ccc(O)cc1`, the nuclei count came to 94.6.

In turn, `CCN(CC)CCNC(=O)c1cc(S(C)(=O)=O)ccc1OC` [Tiapride hydrochloride] registered a nuclei count of 101.

Regarding `O=C(CCCN1CC=C(n2c(=O)[nH]c3ccccc32)CC1)c1ccc(F)cc1` [Droperidol], the nuclei count was 107.

In turn, `CC(C)N1CCN(c2ccc(OCC3COC(Cn4cncn4)(c4ccc(Cl)cc4Cl)O3)cc2)CC1` (stereo unspecified) [Terconazole] displayed a nuclei count of 99.7.

Regarding `CN1C2CCCC1CC(NC(=O)c1nn(C)c3ccccc13)C2` (stereo unspecified) [Granisetron], the nuclei count came out at 114.

`CN1C2CCCC1CC(NC(=O)c1nn(C)c3ccccc13)C2` (stereo unspecified) [Granisetron HCl] registered a nuclei count of 104.

Compound `CCN(CC)CC#CCOC(=O)C(O)(c1ccccc1)C1CCCCC1` (stereo unspecified) [Oxybutynin chloride] came in with a nuclei count of 106.

Turning to `Cc1ncc([N+](=O)[O-])n1CCO` [Metronidazole], the nuclei count came out at 86.1.

Compound `OC(CCN1CCCCC1)(c1ccccc1)C1CC2C=CC1C2` (stereo unspecified) [Biperiden HCl] showed a nuclei count of 95.1.

`OC(CCN1CCCCC1)(c1ccccc1)C1CC2C=CC1C2` (stereo unspecified) [Biperiden hydrochloride] came in with a nuclei count of 101.

In turn, `O=C(NCCNCC(O)COc1ccc(O)cc1)N1CCOCC1` (stereo unspecified) [Xamoterol hemifumarate] yielded a nuclei count of 106 ± 2.1.

`CCN(Cc1ccncc1)C(=O)C(CO)c1ccccc1` (stereo unspecified) [Tropicamide] had a nuclei count of 103.5 ± 0.076.

The compound `CN(C)CCOC1=Cc2ccccc2Sc2ccc(Cl)cc21` [Zotepine] came in with a nuclei count of 104.

Regarding `Cc1c(C(=O)N(C)C2CCCCC2)sc2nc3ccc(N)cc3n12`, the nuclei count is 99.2.

The compound `COc1ccc(C(=O)NCc2cccnc2)cc1C(=O)NCc1cccnc1` [Picotamide monohydrate] came in with a nuclei count of 100.

`Cc1cc([N+](=O)[O-])ccc1NS(=O)(=O)c1cc(Cl)ccc1Cl` showed a nuclei count of 108.

Compound `COc1ccc(COc2ccc(Cc3cnc(N)nc3N)cc2OC)cc1` returned a nuclei count of 96.5.

`NC[C@H]1O[C@H](O[C@H]2[C@H](O[C@@H]3O[C@H](CO)[C@@H](O)[C@H]3O)[C@@H](O)[C@H](N)C[C@@H]2N)[C@H](N)[C@@H](O)[C@@H]1O` [Ribostamycin sulfate salt] returned a nuclei count of 99.9.

`Cc1ccc(C(=O)c2cc(O)c(O)c([N+](=O)[O-])c2)cc1` [Tolcapone] returned a nuclei count of 106.

The compound `O=Nc1c(-c2c(O)[nH]c3ccccc23)[nH]c2ccccc12` [Indirubin-3'-oxime] came in with a nuclei count of 71.8.

`COc1ccc2[nH]cc(CCNC(C)=O)c2c1` [Melatonin] returned a nuclei count of 102 ± 2.4.

`C=CC[C@@H]1/C=C(\C)C[C@H](C)C[C@H](OC)[C@H]2O[C@@](O)(C(=O)C(=O)N3CCCC[C@H]3C(=O)O[C@H](/C(C)=C/[C@@H]3CC[C@@H](O)[C@H](OC)C3)[C@H](C)[C@@H](O)CC1=O)[C@H](C)C[C@@H]2OC` [FK-506 (Tacrolimus)] returned a nuclei count of 102.

Turning to `OC[C@H]1O[C@@H](Oc2cc(O)cc(/C=C/c3ccc(O)cc3)c2)[C@H](O)[C@@H](O)[C@@H]1O` [Polydatin (Piceid)], the nuclei count came to 97.2.

`O=c1c(O)c(-c2ccc(O)cc2O)oc2cc(O)cc(O)c12` [Morin hydrate (Aurantica)] yielded a nuclei count of 103.

`CC(/C=C/c1cccc(Oc2ccc(F)cc2)c1)N(O)C(N)=O` (stereo unspecified) returned a nuclei count of 101.

`COc1ccc(C2CNC(=O)C2)cc1OC1CCCC1` (stereo unspecified) [Rolipram] gave a nuclei count of 102 ± 3.

`Nc1c(S(=O)(=O)O)cc(Nc2cccc3ccccc23)c2c1C(=O)c1ccccc1C2=O`: the nuclei count came out at 99.5.

For the compound `CCCCN1CCCC1CNC(=O)c1cc(C#N)c2ccccc2c1OC` (stereo unspecified) [Nafadotride], the nuclei count came out at 96.4.

Turning to `CC(=O)Nc1nc(C)c(-c2ccc(Cl)c(S(=O)(=O)NCCO)c2)s1`, the nuclei count is 90.3.

Compound `CN(Cc1ccccc1)C(=O)[C@H](Cc1ccc2ccccc2c1)NC(=O)[C@@H]1CCCN1C(=O)Nc1ccccc1[N+](=O)[O-]` showed a nuclei count of 100.

The compound `c1ccc([C@H]2CN3CCSC3=N2)cc1` [Levamisole hydrochloride] displayed a nuclei count of 108.

As for `c1ccc([C@H]2CN3CCSC3=N2)cc1` [Levamisole HCl], the nuclei count amounted to 96.5.

Turning to `CCC(=O)O[C@]1(C(=O)CCl)[C@@H](C)C[C@H]2[C@@H]3CCC4=CC(=O)C=C[C@]4(C)[C@@]3(F)[C@@H](O)C[C@@]21C` [Clobetasol propionate], the nuclei count is 96.6 ± 8.

`O=C1C[C@@H](c2ccc(O)cc2)Oc2cc(O)cc(O)c21` [Naringenin] yielded a nuclei count of 103.

`Cc1ccc([N+](=O)[O-])cc1S(=O)(=O)N(C)C`: the nuclei count was determined as 116.

`Cc1c(O)c(=O)ccn1C` [Deferiprone] yielded a nuclei count of 106.

`O=S(=O)(O)c1cc(O)ccc1O` [Ethamsylate] registered a nuclei count of 111.

In the case of `CCCCC(F)(F)[C@@]1(O)CC[C@H]2[C@@H](CC(=O)[C@@H]2CCCCCCC(=O)O)O1` [Lubiprostone (Amitiza)], the nuclei count was determined as 88.7.

Consider `COc1ccc(F)c(F)c1C(=O)c1cnc(NC2CCN(S(C)(=O)=O)CC2)nc1N`, for which the nuclei count came to 35.8 ± 0.95.

In the case of `O=C1OCCN1/N=C/c1ccc([N+](=O)[O-])o1` [Furazolidone], the nuclei count amounted to 76.1.

For `CCOC(=O)[C@H](CCc1ccccc1)N[C@H]1CS[C@H](c2cccs2)CN(CC(=O)O)C1=O` [Temocapril HCl], the nuclei count came out at 108.

Regarding `CN(C)c1nc(N(C)C)nc(N(C)C)n1` [Altretamine], the nuclei count was determined as 99.3.

Take `N[C@H](C(=O)O)[C@H](O)c1ccc(O)c(O)c1` [Droxidopa (L-DOPS)]: the nuclei count was 99.8.

`Nc1nc2n[nH]nc2c(=O)[nH]1` [Azaguanine-8]: the nuclei count is 64.3.

Regarding `CC(=O)O[C@]1(C(C)=O)CC[C@H]2[C@@H]3C[C@H](C)C4=CC(=O)CC[C@]4(C)[C@H]3CC[C@@]21C` [Medroxyprogesterone acetate], the nuclei count is 118.

In turn, `CC(C)NCC(O)c1ccc2ccccc2c1` (stereo unspecified) [Pronethalol hydrochloride] gave a nuclei count of 97.9 ± 0.23.

`CCCc1c(OCC(O)COc2ccc3c(=O)cc(C(=O)O)oc3c2CCC)ccc(C(C)=O)c1O` (stereo unspecified) came in with a nuclei count of 107.

For the compound `COc1cc2c(Oc3ccc4[nH]c(C)cc4c3F)ncnc2cc1OCCCN1CCCC1` [Cediranib (AZD2171)], the nuclei count came to 82.2.

`CNc1cc(OC)c(C(=O)NC2CCN(Cc3ccccc3)C2C)cc1Cl` (stereo unspecified) [Nemonapride] came in with a nuclei count of 95.4.

`CCn1cc(-c2cccc(C(F)(F)F)c2)c2sc(C(=N)NC3CCS(=O)(=O)CC3)cc2c1=O` came in with a nuclei count of 91.5.

As to `C[C@H]1C[C@@H]2[C@H]([C@@H](O)C[C@@]3(C)[C@H]2CC[C@]3(O)C(=O)CO)[C@@]2(C)C=CC(=O)C=C12` [Methylprednisolone, 6-alpha], the nuclei count is 104.

For `C[C@H]1C[C@@H]2[C@H]([C@@H](O)C[C@@]3(C)[C@H]2CC[C@]3(O)C(=O)CO)[C@@]2(C)C=CC(=O)C=C12` [Methylprednisolone], the nuclei count is 116.

As to `O=[N+]([O-])c1cccc2cn[nH]c12` [7-Nitroindazole], the nuclei count came to 100.

Turning to `COc1ccccc1OCC(O)CN1CCN(CC(=O)Nc2c(C)cccc2C)CC1` (stereo unspecified) [Ranolazine], the nuclei count came out at 107.

`COc1cc([C@@H]2c3cc4c(cc3[C@@H](O[C@@H]3O[C@@H]5CO[C@@H](C)O[C@H]5[C@H](O)[C@H]3O)[C@H]3COC(=O)[C@H]23)OCO4)cc(OC)c1O` [Etoposide (VP-16)]: the nuclei count came out at 50.9.

`COc1cc([C@@H]2c3cc4c(cc3[C@@H](O[C@@H]3O[C@@H]5CO[C@@H](C)O[C@H]5[C@H](O)[C@H]3O)[C@H]3COC(=O)[C@H]23)OCO4)cc(OC)c1O` [Etoposide]: the nuclei count was 44.3 ± 2.
